Measured values as given in article PMC4200520 (2014).

Molecular target: XMAP-Ct, C-terminal coiled-coil fragment of XMAP215 (Xenopus, UniProt Q9PT63 2002-2065)
Assay: SPR

Sequence of UniProt Q9PT63 (Q9PT63 2002-2065): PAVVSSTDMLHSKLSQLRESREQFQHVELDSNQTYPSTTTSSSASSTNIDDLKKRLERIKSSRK

B1: TD4, minimal TACC domain (TD) fragment of XTACC3 (domain or fragment)
chain: LSTSDAIVEMLKYSQKDMDAAIEAVRLEVQEKDLEVLEWKTKHEKLYLEYVEMGKIIAEFEGTITQILEDSQRQKETAKLELNKVLQEKQQVQVDLNSMETSFSELFKRLEKQKEALEGYRKNEEALKKCVEDYLVRIKKEEQRYQALKAHAEEKLNRANEEIAHVRSKAKSEATALQATLRKEQMKIQSLERSLEQKSKENDELTKICDDFILKMEKI
With B1 the Kd was 540 nM.
